Source: the supplement of paper PMC9433436
± gives the standard deviation of the averaged measurements. Whole data set: some 4,100 sequences, median “relative kcat/Km (krel) vs genomic leader AAAGAU” near 1.7, cut for the highest 2% near 6.5. The list shows a part of the results, in another mix than the full data.

Biological target: T1, E. coli RNase P holoenzyme (M1 P RNA + rnpA protein) (UniProt P0A7Y8)
T1 sequence: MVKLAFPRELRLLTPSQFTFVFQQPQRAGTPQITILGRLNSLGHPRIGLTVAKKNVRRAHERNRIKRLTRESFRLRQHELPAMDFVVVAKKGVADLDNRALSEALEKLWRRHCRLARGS
Assay: relative kcat/Km (krel) vs genomic leader AAAGAU (relative (reference leader = 1)); higher = faster RNase P cleavage
Protocol: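 HTS-Kin: a pool of ptRNA-Met (21C construct) with all 4096 combinations of 5' leader nucleotides N(-6) to N(-1) was processed in vitro by E. coli RNase P (P RNA + rnpA/C5 protein) under multiple-turnover conditions at 37 C, pH 8, 17.5 mM MgCl2. Residual substrate was Illumina-sequenced at several fractions reacted, and relative kcat/Km (krel) was computed by internal competition kinetics, calibrated to the genomic leader (AAAGAU = 1). The listed hexamer is the varied N(-6)..N(-1) leader (DNA letters), and it sits between a fixed 5' stem-loop flank (GCAUGCACGAAAGUGCGUGCUAUGAA) and the mature tRNA-Met starting GGCUACGUAGCUCAGUUGG. Two technical replicates are averaged.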

[1] = fraction of substrate reacted: ~9-10% (9.79% repeat 1, 9.1% repeat 2)
[2] = fraction of substrate reacted: ~13-16% (15.68% repeat 1, 13.17% repeat 2)
[3] = fraction of substrate reacted: ~26-29% (28.66% repeat 1, 26.4% repeat 2)

Row | Sequence | relative kcat/Km [1] | relative kcat/Km [2] | relative kcat/Km [3]
1 | CGCTGA | 1.89 ± 0.05 | 2.02 ± 1 | 3.55 ± 0.89
2 | CAAATT | 1.34 ± 0.051 | 1.56 ± 0.49 | 1.98 ± 0.52
3 | AGGACG |  |  | 0.724 ± 0.32
4 | GCATGT |  |  | 1.39 ± 1.1
5 | CTGCGG |  | 0.228 ± 0.042 | 0.674 ± 0.39
6 | CAGAAC | 3.1 ± 1.9 | 2.99 ± 0.042 | 4.01 ± 0.99
7 | CAGTAC | 3.68 ± 1.6 | 4.92 ± 0.95 | 6.37 ± 2.2
8 | AAGACT | 1.08 ± 0.93 |  | 1.63 ± 0.12
9 | GGAATA | 1.82 ± 0.55 | 1.8 ± 0.031 | 1.9 ± 0.54
10 | GCGCCA | 0.856 ± 0.1 | 0.801 ± 0.097 | 0.923 ± 0.28
11 | CCTTTT | 2.12 ± 0.32 | 2.5 ± 0.59 | 3.23 ± 0.89
12 | TGAAGA | 2.35 ± 0.51 | 2.79 ± 0.87 | 3.98 ± 1.3
13 | CCTCGT | 0.109 ± 0.037 |  | 
14 | TGAGTA | 0.957 ± 0.65 | 0.718 ± 0.19 | 0.835 ± 0.5
15 | GGACTT | 0.557 ± 0.36 | 1.13 ± 0.16 | 1.72 ± 0.87
16 | TCAACA | 1.41 ± 1.4 | 0.943 ± 0.28 | 1.25 ± 0.15
17 | TCGTTG |  | 0.664 ± 0.27 | 1.32 ± 0.76
18 | TCGCGC | 1.38 ± 0.87 | 1.39 ± 0.44 | 2.19 ± 0.43
19 | AACCGC | 3.24 ± 0.86 | 3.02 ± 0.23 | 4.02 ± 0.71
20 | CACGTC | 2.22 ± 0.52 | 2.85 ± 0.29 | 3.87 ± 1.4
21 | CTAGGC | 0.689 ± 0.58 |  | 0.602 ± 0.28
22 | CTTTGA | 3.37 ± 1.3 | 4.04 ± 0.95 | 6.03 ± 1.9
23 | TGGCCT | 0.654 ± 0.19 | 0.698 ± 0.36 | 1 ± 0.72
24 | TCTTCT | 2.65 ± 0.82 | 3.25 ± 0.61 | 4.06 ± 0.99
25 | CCACTT | 1.71 ± 0.26 | 0.873 ± 0.61 | 1.91 ± 0.31
26 | CGCCTA | 2.59 ± 1.6 | 2.6 ± 0.31 | 3.01 ± 0.38

Row | Sequence | relative kcat/Km [1] | relative kcat/Km [2] | relative kcat/Km [3]
27 | CCGCTT | 0.722 ± 0.14 | 0.804 ± 0.8 | 1.52 ± 0.08
28 | CTACCT | 1.63 ± 0.036 | 1.09 ± 0.68 | 1.95 ± 0.57
29 | CGACTG |  |  | 1.06 ± 0.51
30 | AGGGAC | 0.909 ± 0.096 | 0.941 ± 0.3 | 1.13 ± 0.59
31 | TTGATT | 1.77 ± 0.11 | 2.33 ± 0.52 | 2.72 ± 1
32 | ATCCGA | 4.57 ± 1.7 | 4.95 ± 0.73 | 7.19 ± 2.7
33 | TCGCCC | 2.79 ± 1.3 | 3.26 ± 0.68 | 4.33 ± 1.8
34 | TTGACG |  | 0.516 ± 0.018 | 1.3 ± 0.49
35 | TGGGCC | 0.405 ± 0.12 |  | 0.302 ± 0.058
36 | CTCAAT | 4.23 ± 0.85 | 5.46 ± 1.7 | 
37 | GCTTTC | 2.29 ± 2.1 | 1.88 ± 0.58 | 2.09 ± 0.45
38 | AATAAT | 2.43 ± 1.9 | 2.35 ± 0.53 | 3.46 ± 0.93
39 | GGTGTC | 1.05 ± 0.68 | 0.738 ± 0.36 | 0.923 ± 0.48
40 | CACATG | 1.79 ± 1.8 | 1.05 ± 0.064 | 2.45 ± 0.4
41 | ACTAGA | 2.41 ± 0.81 | 2.21 ± 0.18 | 3.27 ± 0.63
42 | TCGAAA | 2.14 ± 0.82 | 2.54 ± 0.73 | 3.76 ± 0.63
43 | CGATTA | 1.86 ± 0.43 | 2.14 ± 0.18 | 3.55 ± 1.1
44 | GAATAC | 3.39 ± 1.4 | 3.87 ± 0.54 | 4.94 ± 1.5
45 | CACTTA | 2.83 ± 0.8 | 3.66 ± 0.43 | 5 ± 1.9
46 | TGTCGC | 1.87 ± 0.089 | 2.92 ± 1.1 | 5.09 ± 2.2
47 | GCCGAC | 2.64 ± 1.3 | 3.49 ± 0.69 | 5.36 ± 2.2
48 | GACCCC | 2.47 ± 1.1 | 1.42 ± 0.41 | 2.98 ± 1.3
49 | TAAAGA | 1.01 ± 0.34 | 1.61 ± 0.79 | 3.01 ± 1.7
50 | TTGTTC | 1.96 ± 0.092 | 2.08 ± 0.17 | 3.27 ± 1.5
51 | ATGCTA | 1.02 ± 0.14 | 0.937 ± 0.11 | 1.11 ± 0.45
52 | ATGGCT | 0.242 ± 0.14 |  | 

Row | Sequence | relative kcat/Km [1] | relative kcat/Km [2] | relative kcat/Km [3]
53 | CTGAGG | 0.926 ± 0.1 |  | 0.642 ± 0.14
54 | TAATCG |  | 0.624 ± 0.13 | 1.73 ± 0.43
55 | GCGCTT | 1.91 ± 0.64 | 1.38 ± 0.55 | 1.55 ± 0.38
56 | TCTCCA | 1.69 ± 0.31 | 1.48 ± 0.041 | 2.05 ± 0.9
57 | GTAAAG | 1.55 ± 1.1 | 1.15 ± 0.022 | 2.12 ± 0.82
58 | GGGTTA | 0.464 ± 0.21 | 1.07 ± 0.59 | 1.14 ± 0.58
59 | CTTGGG | 0.577 ± 0.43 | 0.357 ± 0.26 | 0.81 ± 0.43
60 | AGACTT | 1.5 ± 0.67 | 2.25 ± 0.44 | 2.66 ± 0.6
61 | TTTTGT |  |  | 2.01 ± 1.6
62 | GGGGCC | 0.798 ± 0.048 | 0.576 ± 0.47 | 0.579 ± 0.14
63 | CGCACA | 2.02 ± 0.55 | 2.07 ± 0.6 | 3.32 ± 1.5
64 | ACTACT | 1.1 ± 0.62 | 1.54 ± 0.4 | 2.02 ± 0.23
65 | GCCCCC | 2.23 ± 1.1 | 1.9 ± 0.87 | 3.12 ± 0.62
66 | CTCCTG |  |  | 1.13 ± 0.85
67 | ATTTGG | 0.774 ± 0.73 |  | 0.957 ± 0.15
68 | TAGTCG | 1.47 ± 0.95 | 0.892 ± 0.38 | 2.03 ± 0.71
69 | ACCCAA | 2.3 ± 0.84 | 2.69 ± 0.25 | 4.83 ± 1.9
70 | ACTCAG |  | 0.397 ± 0.19 | 1.9 ± 0.19
71 | GTCTCA | 3.83 ± 1.2 | 5.79 ± 0.43 | 7.71 ± 2.8
72 | TGTATT | 2.22 ± 0.93 | 2.95 ± 0.64 | 4.73 ± 2.2
73 | GCCATG |  |  | 1.58 ± 0.63
74 | GACGCG |  | 0.59 ± 0.14 | 2.38 ± 0.093
75 | GTGATA | 0.914 ± 0.2 | 0.552 ± 0.27 | 1 ± 0.059
76 | TTAGGA |  | 1.62 ± 0.59 | 1.76 ± 1.6
77 | TAGGTA |  |  | 1.95 ± 1.7
78 | TCACCG | 1.87 ± 1.4 | 0.836 ± 0.24 | 1.62 ± 0.19

Row | Sequence | relative kcat/Km [1] | relative kcat/Km [2] | relative kcat/Km [3]
79 | ATGTCT | 1.82 ± 0.38 | 2.3 ± 0.33 | 2.43 ± 1
80 | AGCGAG |  |  | 1.56 ± 0.3
81 | GATGCG |  |  | 0.554 ± 0.53
82 | GACGCT | 2.24 ± 0.19 | 2.17 ± 0.8 | 3.11 ± 1.4
83 | TCTCGG | 1.19 ± 1.1 | 0.684 ± 0.45 | 1.04 ± 0.15
84 | TATAAG | 1.78 ± 1.7 | 1.54 ± 0.069 | 3.1 ± 0.87
85 | TATTCG |  | 1.65 ± 0.56 | 2.36 ± 0.92
86 | TGCTTA | 1.81 ± 1.3 | 1.61 ± 0.04 | 2.75 ± 0.38
87 | ATTTCA | 2.01 ± 2 | 1.74 ± 0.69 | 2.45 ± 0.59
88 | CGCAAT | 1.86 ± 0.36 | 2.82 ± 1.1 | 4.14 ± 1.8
89 | CGTAGG |  |  | 1.42 ± 0.39
90 | TTTAGC | 2.66 ± 1.3 | 3.21 ± 0.063 | 4.7 ± 1.9
91 | ATTTAT | 3.82 ± 1.8 | 4.84 ± 0.46 | 7.02 ± 3
92 | GCAATA | 0.978 ± 0.89 | 0.845 ± 0.53 | 1.14 ± 0.03
93 | TAAGTT | 1.5 ± 1 |  | 1.45 ± 0.97
94 | CGGTAC | 3.2 ± 3 | 1.83 ± 0.77 | 1.09 ± 0.61
95 | TCCGAC | 3.47 ± 0.1 | 4.91 ± 1.2 | 
96 | TTAATC | 2.41 ± 1.7 | 2.073 ± 0.019 | 2.68 ± 1
97 | AACCCA | 1.77 ± 0.64 | 1.18 ± 0.27 | 1.78 ± 0.023
98 | ATTGTG |  |  | 0.393 ± 0.14
99 | AGGTTC |  | 0.57 ± 0.42 | 0.636 ± 0.45
100 | TTGAAC | 2.93 ± 0.52 | 3.49 ± 1.3 | 4.56 ± 1.5
101 | GACTCT | 2.87 ± 0.22 | 3.86 ± 1.1 | 5.7 ± 2
102 | CGGAAG |  |  | 0.852 ± 0.65
103 | GAGGCG |  | 0.117 ± 0.055 | 0.664 ± 0.042
104 | CGAATC | 1.55 ± 0.73 | 1.29 ± 0.5 | 2.3 ± 0.86
